Assay results: PubChem BioAssay AID686978 (National Center for Advancing Translational Sciences (NCATS), 2013)
About 64,000 (15%) of roughly 420,000 compounds were called active. Inconclusive means that the source gave no clear call. Such entries were picked first, then a sample of the others. Calls follow the shape of the dose curve; as a rule, active = well fitted inhibition curve with a large enough effect; inconclusive = small, poorly fitted or top-dose-only effect; inactive = flat fitted curve, though single readings scatter. No potency is given beside an inconclusive call; the fits are too rough.
% is scaled to controls: 0 for no effect and ±100 for the full control effect; potency is read from the fitted curve at half-maximal effect; tags tell the direction and shape of the fitted curve.

Assay: qHTS for Inhibitors of human tyrosyl-DNA phosphodiesterase 1 (TDP1): qHTS in cells in absence of CPT; also: nearly all actives have a fitted effect of over 55% in size
Conditions: DT40 Tdp1-/- hTDP1 cells, no CPT, ATP luminescence, 48 h; activity change, negative = growth inhibition: at 46.2 µM (top of the series) unless noted
How it was run: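 Readout: luminescence from CellTiter-Glo after 30 min in the dark at RT. Cells: DT40 Tdp1-/- with stable hTDP1, 400/well. Exposure: compounds alone, ≥48 hr, 37 °C.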
In the case of `COc1ccc(-c2nc3cc(C)c(Br)c(C)n3c2Cc2ccccc2)cc1OC`, the Potency is reported as inconclusive [inhibitor, single point]. In the case of `COc1ccc(OC)c(NC(=O)Cn2c(=O)n(-c3ccc(Cl)cc3)c(=O)c3c(C)c(C)sc32)c1`, the Potency is reported as inconclusive [inhibitor, partial curve]. In the case of `O=c1c2c([N+](=O)[O-])cc([N+](=O)[O-])cc2nc2ccccn12`, the Potency is reported as inconclusive [inhibitor, single point]. In the case of `COc1ccc(CNC2CC(C)N(C)CC2C)cc1OC` (centres undefined), the “activity change, negative = growth inhibition” value is reported as inactive: 4.22%. With `O=C1CC(c2ccc(F)cc2F)c2cc3c(cc2N1)OCO3` (centres undefined) the “activity change, negative = growth inhibition” value was inactive: -22.4%. For `Cc1ccc(N2C(=O)CCSC23C(=O)N(Cc2ccc(F)cc2)c2ccccc23)cc1` (centres undefined), the Potency was active: 8.2 µM. With `CN1CCN(c2ccc(S(=O)(=O)N3CCOCC3)cc2NC(=O)COc2ccc(F)cc2Cl)CC1` the Potency was inconclusive [inhibitor, single point]. With `O=C(COC(=O)c1cccnc1Cl)NC(=O)c1ccc(OC(F)F)cc1` the “activity change, negative = growth inhibition” value was inactive: -4.55%. With `COc1cc(C(=O)Nc2cc(-c3ccccc3)[nH]n2)cc(OC)c1OC` the Potency was inconclusive [inhibitor, partial curve]. In the case of `COc1ccc(Nc2nc(-c3cccs3)nc3ccccc23)cc1`, the Potency is reported as active: 23.1 µM. In the case of `COc1ccc(C(O)c2nc(-c3cnn(C)c3)cs2)cc1` (centres undefined), the Potency is reported as inconclusive [inhibitor, single point]. With `CC1CCN(C(=O)CSc2nnc(NC(=O)Nc3ccccc3)s2)CC1` the Potency was inconclusive [inhibitor, single point]. For `CCOc1ccc(N(CC(=O)Nc2ccc(OC)cc2)S(=O)(=O)c2c(C)noc2C)cc1`, the Potency was inconclusive [inhibitor, single point]. In the case of `CCn1c(SCC(=O)Nc2cc(C)on2)nc2c([nH]c3ccccc32)c1=O`, the Potency is reported as active: 18.4 µM. In the case of `CCc1nnc(NC(=O)CSCc2cc(=O)n3ccsc3n2)s1`, the “activity change, negative = growth inhibition” value is reported as inactive: -4.73%. In the case of `Cc1ccc(NC(=O)NC(=O)CN2CCCC2c2ccc3c(c2)OCCO3)cc1C` (centres undefined), the Potency is reported as inconclusive [inhibitor, single point]. For `Cc1ccccc1C(=O)N1CCN=C1SCc1ccc([N+](=O)[O-])cc1`, the Potency was inconclusive [inhibitor, single point]. For `Cc1ccccc1C(=O)Nc1nnc(SC(C)C)s1`, the “activity change, negative = growth inhibition” value was inactive: -1.53%. For `CC1CCCCC1NC(=O)CNC(=O)c1cccs1` (centres undefined), the “activity change, negative = growth inhibition” value was inactive: -21.3%. For `Cc1nn(C)c(Oc2ccccc2)c1CCNC(=O)C(C)(C)C`, the “activity change, negative = growth inhibition” value was inactive: -1.75%. In the case of `c1ccc(Cn2nnnc2C(c2ccccn2)N2CCN(c3ccccc3)CC2)cc1` (centres undefined), the Potency is reported as inconclusive [inhibitor, single point]. For `Cc1cccc(CC(=O)Nc2c(C(=O)Nc3cccc(F)c3)oc3ccccc23)c1`, the Potency was inconclusive [inhibitor, single point]. With `CCOC(=O)C1CCN(C(=O)Cn2ncc3c4ccccc4n(Cc4ccccc4)c3c2=O)CC1` the Potency was active: 7.31 µM. In the case of `COc1cccc(N=c2oc3ccc(OC)cc3cc2-c2nc3ccccc3[nH]2)c1`, the Potency is reported as inconclusive [inhibitor, partial curve]. For `COc1cc(C(=O)OC2CSCC2NC(=O)c2ccccc2)cc(OC)c1OC` (centres undefined), the Potency was inconclusive [inhibitor, single point]. With `Cc1ccc2c(c1)N(C(=O)CCC(=O)NCc1cccs1)CC(C)O2` (centres undefined) the Potency was inconclusive [inhibitor, single point]. With `C[C@H]1CC[C@]2(O[C@H](CCO)C[C@@H](O)[C@@H]2O)O1` the “activity change, negative = growth inhibition” value was inactive: -33.1%. In the case of `Cc1ccccc1CC1(CO)CCCN(Cc2nc(-c3cccs3)oc2C)C1` (centres undefined), the Potency is reported as active: 20.6 µM. For `O=C(C[n+]1ccccc1Cl)c1cccc([N+](=O)[O-])c1`, the Potency was inconclusive [inhibitor, single point]. For `COC(=O)c1ccccc1NC(=O)Cn1c(CCC(=O)O)ccc1-c1ccc(C)cc1`, the Potency was inconclusive [inhibitor, single point]. For `CCOC(=O)NC1(NCC(C)C)Oc2ccccc2O1`, the “activity change, negative = growth inhibition” value was inactive: -24.7%. With `COc1ccc(CCNC(=O)c2ccc(Cn3c(SCC(=O)NCCC(C)C)nc4cc5c(cc4c3=O)OCO5)cc2)cc1OC` the “activity change, negative = growth inhibition” value was inactive: -17.1%. For `COc1cccc(-c2nc3c(C#N)c[nH]n3c2NC2CCC(C)CC2)c1` (centres undefined), the Potency was inconclusive [inhibitor, single point]. In the case of `CC(=O)Nc1nc(-c2ccc3c(c2)CCN3S(C)(=O)=O)cs1`, the Potency is reported as inconclusive [inhibitor, single point]. With `CS(=O)(=O)c1ncc(Cl)c(C(=O)Nc2c(C(=O)c3ccc(Cl)cc3)oc3ccccc23)n1` the “activity change, negative = growth inhibition” value was inactive: 3.36%. With `O=[N+]([O-])c1ccccc1/C=C/C=N/n1c(-c2ccccc2)n[nH]c1=S` the “activity change, negative = growth inhibition” value was inactive: -10.6%. In the case of `CCc1ccc(N/C(SCc2ccccc2C)=C(/C#N)C(=O)NCc2ccco2)cc1`, the Potency is reported as inconclusive [inhibitor, single point]. In the case of `CC1=C(C(=O)Nc2cccnc2)C(c2ccccc2Cl)n2nc(-c3ccccc3)nc2N1` (centres undefined), the “activity change, negative = growth inhibition” value is reported as inactive: -21.7%. For `CCCS(=O)(=O)C(=C1Nc2ccccc2N1)S(=O)(=O)CCC`, the “activity change, negative = growth inhibition” value was inactive: -3.88%. In the case of `Cc1cc(C)c2oc(-c3cccc(NC(=O)COc4ccccc4Cl)c3C)nc2c1`, the Potency is reported as inconclusive [inhibitor, single point]. For `CCN(CC)CC(=O)Nc1nc(-c2ccc(Cl)cc2)cs1`, the Potency was inconclusive [inhibitor, single point]. For `NC(=O)c1ncc(C(F)(F)F)cc1Oc1cccc(F)c1`, the “activity change, negative = growth inhibition” value was inactive: -6.5%. With `O=C(CCC(=O)Nc1ccc(F)cc1)N/N=C/c1cccc(Br)c1` the Potency was inconclusive [inhibitor, single point]. With `CC1CCCC(C)N1CCCNC(=O)c1cc2c(s1)-c1ccccc1OC2` (centres undefined) the Potency was inconclusive [inhibitor, single point]. With `COCCNC(=O)/C(C#N)=C/c1ccc(-c2ccc(S(=O)(=O)N3CCOCC3)cc2)o1` the Potency was inconclusive [inhibitor, partial curve]. In the case of `Clc1cccc(-n2ncc3c(NCCCN4CCOCC4)ncnc32)c1`, the Potency is reported as inconclusive [inhibitor, single point]. For `CCCOc1ccc(C(=O)NC(=S)NCc2cccnc2)cc1`, the Potency was inconclusive [inhibitor, single point]. For `COc1ccc2c(c1)NC(=O)C2CC(=O)N1CCOc2c(cc(-c3cnc4ccccc4c3)cc2OC)C1` (centres undefined), the Potency was active: 18.4 µM. For `N#Cc1ccc(NC(=O)COC(=O)c2cccc(S(=O)(=O)N3CCCC3)c2)cc1`, the Potency was inconclusive [inhibitor, partial curve, poor fit]. With `CCCCOC(=O)C1=C(C)Nc2ncnn2C1c1cc(OC)c(OC)cc1OC` (centres undefined) the “activity change, negative = growth inhibition” value was inactive: -21.8%. With `COc1ccc(NC(=O)CSc2nnc3ccc(-c4ccncc4)nn23)cc1` the Potency was inconclusive [inhibitor, partial curve]. For `CCOc1cc(C(=O)OC(C)C(=O)Nc2ccccc2OC)ccc1OCC(=O)N1CCOCC1` (centres undefined), the Potency was inconclusive [inhibitor, single point]. With `COc1cc(NC(=O)C2CC3CCC2C3)c(OC)cc1Cl` (centres undefined) the Potency was inconclusive [inhibitor, single point]. With `Cc1cc(C)c2nc(N(CCN(C)C)C(=O)/C=C/c3cccs3)sc2c1` the Potency was inconclusive [inhibitor, partial curve, poor fit]. For `COc1cc(-c2noc(C3CCCN(S(=O)(=O)c4cccc(Cl)c4)C3)n2)cc(OC)c1OC` (centres undefined), the Potency was inconclusive [inhibitor, single point]. With `O=C(CNc1ccccc1Cl)Nc1cc(S(=O)(=O)N2CCOCC2)ccc1Cl` the Potency was inconclusive [inhibitor, single point]. With `COc1ccc(-c2c(C(C)=O)c(C)nc3sc4c(=O)n(-c5ccc(C)cc5)nnc4c23)cc1` the Potency was inconclusive [inhibitor, single point]. In the case of `O=C(Nc1ccc2oc(-c3ccc4ccccc4c3)nc2c1)c1cc(Cl)ccc1Cl`, the Potency is reported as inconclusive [inhibitor, single point]. For `COc1ccc(N2CCN(S(=O)(=O)c3ccc4c(c3)NC(=O)C(C)S4)CC2)cc1` (centres undefined), the Potency was inconclusive [inhibitor, single point]. With `CN1CCN(C(=S)Nc2ccc(S(N)(=O)=O)cc2)CC1` the “activity change, negative = growth inhibition” value was inactive: 3.61%. For `CCOC(=O)C1CCCN(CCC(C)c2ccccc2)C1` (centres undefined), the “activity change, negative = growth inhibition” value was inactive: -1.18%. In the case of `O=C(c1cc(-c2ccncc2)nc2ccccc12)N1CCN(c2ccccc2O)CC1`, the Potency is reported as inconclusive [inhibitor, partial curve]. For `CCc1ccccc1N(C(=O)CCC(=O)Nc1cc(C)on1)C(C(=O)NC1CCCC1)c1ccco1` (centres undefined), the Potency was inconclusive [inhibitor, single point]. In the case of `CC1CC(C)CN(C(=O)COC(=O)c2nccnc2N)C1` (centres undefined), the “activity change, negative = growth inhibition” value is reported as inactive: 20.4%. For `COc1cc(/C=C2/SC(=S)N(CC3CCCO3)C2=O)ccc1O` (centres undefined), the Potency was inconclusive [inhibitor, partial curve]. With `CC(=O)c1c(C)n(-c2ccc(C)cc2)c2ccc(OC(=O)COc3ccccc3)cc12` the Potency was active: 7.31 µM. For `CCc1cc(C(=O)N(CC)CC(=O)Nc2c(F)cccc2F)sc1C`, the Potency was inconclusive [inhibitor, single point]. With `COc1ccc(S(=O)(=O)N2CCN(Cc3cc4c(cc3Br)OCCO4)CC2)cc1` the Potency was inconclusive [inhibitor, partial curve]. For `COc1ccc(-c2noc(CN(C(=O)c3c(-c4ccccc4Cl)noc3C)C(C)C)n2)cc1`, the Potency was active: 23.1 µM.
